# Results taken from PubChem BioAssay AID1466 (National Center for Advancing Translational Sciences (NCATS), 2008).
# Hit rate of the full screen: of about 200,000 compounds, about 10 (0.005%) were called active. This list was built around the results that the source calls inconclusive (neither active nor inactive); the mix of calls is not that of the screen. The call rests on the fitted dose curve; in most records, active means well fitted inhibition curve with a large enough effect; inconclusive means small, poorly fitted or top-dose-only effect, or effect the other way, or another doubt; inactive means no such curve, though single readings can be large or run the other way. Potencies of inconclusive entries are left out as doubtful fits.
# Biological target: Lysosomal alpha-glucosidase (Homo sapiens) (UniProt P10253)
# Assay: qHTS Assay for Inhibitors of Human alpha-Glucosidase as a Potential Chaperone Treatment of Pompe Disease;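 on activity change, negative = inhibition: plate controls were uninhibited enzyme wells for no effect and no-enzyme background for full effect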
# Details: purified human GAA, 4-MU-alpha-glucoside fluorescence; activity change, negative = inhibition: at 76.9 µM (top of the series) unless noted
# Summary of the method: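 Fluorogenic assay: 4 nM human alpha-glucosidase with 400 uM 4-methylumbelliferyl-alpha-D-pyranoside in 50 mM citrate/phosphate, 0.005% Tween-20, pH 5.0, 20 min at room temperature. Compounds tested up to 77 uM; AC50 from Hill fits.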
# Potency means the concentration at half of the fitted maximal effect; tags describe the fitted curve by direction and shape.
SMILES,"activity change, negative = inhibition",Potency
O=C(NCC1CCCO1)C(c1ccc(N2CCOCC2)cc1)N(C(=O)Cn1nnc2ccccc21)c1ccccc1F (centres undefined),inconclusive: 5.99% [activator],
Cn1c(=O)c2cc(S(=O)(=O)NC(C(=O)Nc3cccc(F)c3)c3ccccc3)ccc2n(C)c1=O (centres undefined),,"inconclusive [inhibitor, single point]"
CCN(CC)c1ccc(/C=N/NC(=O)CC(C)C)cc1,,"inconclusive [activator, partial curve]"
COc1cccc(=O)c2c(C)oc(C)c12,,"inconclusive [inhibitor, single point]"
COc1ccc(/C=N/NC(=O)c2ccc(COCC(F)(F)C(F)F)cc2)cc1,,"inconclusive [inhibitor, full curve]"
Cc1ccc(/C=C2/C(=O)c3ccc(C(=O)O)cc3C2=O)o1,inactive: -7.13%,
Cc1ccc(SCCNC(=S)Nc2ccc(C)c(C)c2)cc1,,"inconclusive [inhibitor, single point]"
CCOC(=O)c1[nH]c2ccc(OC)cc2c1NS(=O)(=O)c1ccc(Cl)s1,inactive: 0.962%,
CC1CCc2c(C(=O)Nc3nccs3)csc2C1 (centres undefined),inconclusive: 21.3% [activator],
CCOC(=O)c1nnn(CC(=O)N2N=C(c3ccccc3)CC2c2ccccc2)c1C(=O)OCC (centres undefined),,"inconclusive [inhibitor, partial curve, poor fit]"
CCCn1c(=NC(C)=O)c(C(=O)OCC)cc2c(=O)n3ccccc3nc21,,"inconclusive [activator, partial curve]"
Cc1c(C(=O)NCCCN2CCOCC2)oc2ccc(S(=O)(=O)N3CCOCC3)cc12,inconclusive: -16% [inhibitor],
N#CC1=C(N)C2=CCCC[C@H]2[C@H](c2ccccc2)C1(C#N)C#N,,"inconclusive [inhibitor, partial curve, poor fit]"
Cc1cc(C)c(Nc2ncccc2C(=O)O)c(C)c1,,"inconclusive [inhibitor, partial curve]"
CCCc1cc(-c2[nH]ncc2-c2ccc3c(c2)OCCCO3)c(O)cc1OC,,"inconclusive [inhibitor, full curve, poor fit]"
CCOC(=O)Cc1nnc(NC(=O)CSc2nnc3c4ccccc4n(C(C)C)c3n2)s1,,"inconclusive [inhibitor, single point]"
Fc1ccccc1Nc1nc(NCc2ccco2)nc(N2CCOCC2)n1,inconclusive: 21.1% [activator],
O=C(O)c1cccnc1,,"inconclusive [inhibitor, partial curve]"
CCOC(=O)c1[nH]c2cc(OC)c(OC)cc2c1N,inactive: -1.09%,
O=C(Cc1ccccc1F)Nc1nc(-c2cccnc2)cs1,inconclusive: 17% [activator],
CCCC(=O)Nc1ccc(Sc2ccc([N+](=O)[O-])cc2)cc1,inconclusive: -15.3% [inhibitor],
COc1nc(N(C)S(=O)(=O)c2ccc(C)cc2)nc(C)c1Cl,,"inconclusive [inhibitor, single point]"

SMILES,"activity change, negative = inhibition",Potency
Cc1cccc(C(=O)n2c(=S)nc3ccccn32)c1,,"inconclusive [inhibitor, single point]"
CC(C)(C)c1ccc(C(=O)NCCn2c(N)c(C#N)c3nc4ccccc4nc32)cc1,,"inconclusive [activator, full curve]"
CCCCOC(=O)Cn1c(-c2ccccc2)nc2ccccc2c1=O,,"inconclusive [inhibitor, single point]"
Cc1nc2nc[nH]n2c(=O)c1NC(=O)CC12CC3CC(CC(C3)C1)C2,,"inconclusive [inhibitor, single point]"
Cc1ccc(S(=O)(=O)NC(=O)NC(C)Cc2ccccc2)cc1 (centres undefined),,"inconclusive [inhibitor, partial curve, poor fit]"
CN(C)c1ccc(/C(=N\O)c2ccccc2)cc1,inconclusive: -19.7% [inhibitor],
COc1ccccc1N(O)C1CC(=O)N(c2ccc(Br)cc2)C1=O (centres undefined),inactive: -0.714%,
O=C(CCN1CCN(C/C=C/c2ccccc2)CC1)Nc1ccccc1,inconclusive: -16.1% [inhibitor],
COC(=O)Cc1ccc(NC(=S)N2CCN(C)CC2)cc1,inconclusive: 15.2% [activator],
Cc1ccc(N2CCN(S(=O)(=O)N3CCCCC3)CC2)cc1C,inconclusive: 9.5% [activator],
CCN(CC)C(=O)Oc1cc(=O)n2c3c(cccc13)CCC2,,"inconclusive [inhibitor, full curve]"
Cc1ccc(CC2CC(=O)N(c3nc4ccccc4s3)C2=O)cc1 (centres undefined),,"inconclusive [inhibitor, partial curve]"
Cc1ccc(-n2cc(C(=O)c3ccc(N4CCN(C)CC4)cc3)nn2)cc1Cl,inconclusive: 18.8% [activator],
Cc1ccc(S(=O)(=O)N2CCN(Cc3nc4ccccc4n3C)CC2)cc1,,"inconclusive [inhibitor, single point]"
COC(=O)C(=C/C(C)=C/c1cccnc1)C(=O)OC,inconclusive: 18.9% [activator],
CC(=O)c1cc(-c2ccccc2)n(CC(=O)N2CCC(N3CCCCC3)CC2)c1C,,"inconclusive [inhibitor, single point]"
COc1ccc(NC(=S)NCCc2ccccc2)c(OC)c1,,"inconclusive [inhibitor, single point]"
CCc1ccc2oc(=O)cc(CN3CCCCC3C)c2c1 (centres undefined),,"inconclusive [inhibitor, single point]"
Brc1ccc2nc(-c3ccncc3)c(NC3CCCC3)n2c1,inactive: -14%,
C1CC(CN2CCOCC2)CN(c2nc3nonc3nc2N2CCSCC2)C1 (centres undefined),,"inconclusive [inhibitor, single point]"
COc1cc(/C=N/Nc2nc3ccccc3[nH]c2=O)ccc1O,inactive: -6.57%,
CCN(CC)c1ccc(/C=N\NC(N)=O)cc1,,"inconclusive [activator, partial curve, poor fit]"
